# Results reported in PubChem BioAssay AID588591 (National Center for Advancing Translational Sciences (NCATS), 2011).
# Among all 390,000 compounds or so, about 4,700 (1.2%) were called active. The inconclusive results got no clear call from the source; some entries with a clear call stand among them for comparison. Calls come from the whole dose curve; as a rule, active = well fitted inhibition curve with a large enough effect; inconclusive = small, poorly fitted or top-dose-only effect, or another doubt; inactive = no such curve, though single readings can be large or run the other way. Where the call is inconclusive, the potency comes from a doubtful curve fit.
# Biological target: DNA polymerase eta (Homo sapiens) (UniProt Q9Y253)
# Experiment: qHTS for Inhibitors of Polymerase Eta
# Settings: recombinant Pol eta, fluorescent DNA replication assay; series mostly up to 114 µM; activity change, negative = inhibition: at the top concentration
# How it was run: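 Fluorescent replication assay: 50 nM final substrate added after a 15 min room-temperature compound preincubation with 10 nM enzyme. Signal taken at 0 min and again at 10 min.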
# % is set by controls: 0 for no effect and ±100 for the full control effect; potency is the fitted concentration of half-maximal effect; tags give direction and shape of the fitted curve.
# Chain of UniProt Q9Y253 (Q9Y253 whole entry, looked up): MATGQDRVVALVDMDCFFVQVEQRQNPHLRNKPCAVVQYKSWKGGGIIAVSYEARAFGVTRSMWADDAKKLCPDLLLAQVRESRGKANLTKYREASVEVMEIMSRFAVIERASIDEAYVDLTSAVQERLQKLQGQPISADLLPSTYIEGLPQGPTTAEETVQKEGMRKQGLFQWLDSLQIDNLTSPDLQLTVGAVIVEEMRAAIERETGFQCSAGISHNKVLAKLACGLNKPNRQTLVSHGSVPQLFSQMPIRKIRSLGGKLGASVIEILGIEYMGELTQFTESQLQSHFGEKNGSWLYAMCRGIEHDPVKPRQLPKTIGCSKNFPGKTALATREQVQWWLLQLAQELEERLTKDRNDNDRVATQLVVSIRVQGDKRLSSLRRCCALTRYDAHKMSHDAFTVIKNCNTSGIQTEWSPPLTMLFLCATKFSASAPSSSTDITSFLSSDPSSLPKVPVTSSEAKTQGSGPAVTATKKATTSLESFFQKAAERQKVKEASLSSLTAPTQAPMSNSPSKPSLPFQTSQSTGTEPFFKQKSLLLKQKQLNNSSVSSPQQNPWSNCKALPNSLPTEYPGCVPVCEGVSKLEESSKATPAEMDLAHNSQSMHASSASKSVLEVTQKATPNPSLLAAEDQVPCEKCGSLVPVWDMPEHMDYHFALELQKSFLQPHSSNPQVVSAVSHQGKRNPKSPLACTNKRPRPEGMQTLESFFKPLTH
Structure (SMILES),Potency,"activity change, negative = inhibition"
O=C(Nc1ccc(S(=O)(=O)Nc2ncccn2)cc1)C12CC3CC(CC(Cl)(C3)C1)C2,active: 17.8 µM,
CCOC(=O)Nc1ccc(C(=O)/C=C/c2ccccc2)cc1,"inconclusive: 50.1 µM [inhibitor, partial curve, poor fit]",
C=CCSc1nnc2c(n1)OC(c1ccco1)Nc1ccccc1-2 (centres undefined),"inconclusive: 22.4 µM [inhibitor, partial curve, poor fit]",
COc1ccc(S(=O)(=O)/N=C2/NC(=O)/C(=C/c3ccco3)S2)cc1,active: 17.8 µM,
CCCCNC(=O)CC1Nc2cc(C)c(C)cc2NC1=O (centres undefined),,inactive: 2.79%
Cc1ccc(-c2cc(C(F)(F)F)n3nc(-c4cccc(Br)c4)cc3n2)cc1,,inactive: -4.94%
O=C(Cn1nc(Cc2ccncc2)c2ccccc2c1=O)Nc1cccc(C(F)(F)F)c1,"inconclusive: 100 µM [inhibitor, partial curve, poor fit]",
O=C(Cn1c(=O)cnc2ccccc21)Nc1cc(Cl)ccc1N1CCOCC1,"inconclusive: 14.1 µM [inhibitor, full curve, poor fit]",
CC(C)c1ccc(OC(=O)c2ccc3c(=O)n4c(nc3c2)CCC4)cc1,"inconclusive: 12.6 µM [inhibitor, full curve, poor fit]",
Cc1cc(C)c(C)c(S(=O)(=O)N2CCC(C(=O)OCC(=O)N3c4ccccc4NC(=O)C3(C)C)CC2)c1C,"inconclusive: 22.4 µM [inhibitor, partial curve, poor fit]",
Cc1cc(C)nc(NS(=O)(=O)c2ccc(N/C=C/C(=O)c3ccc(Cl)cc3)cc2)n1,"inconclusive: 15.8 µM [inhibitor, partial curve, poor fit]",
NC(=O)COC(=O)c1ccc(S(=O)(=O)NCc2ccco2)cc1,active: 35.5 µM,
CSc1ccc(CNC(=O)Cn2c(-c3cccs3)cc3cc(F)ccc32)cc1,,inactive: -16.2%
Cc1ccccc1OCC(=O)Nc1ccc(NC(=O)c2ccco2)cc1,,inactive: -3.77%
CCOc1cc(C(=O)NCC(C)(C)CNC(=O)c2cc(OCC)c(OCC)c(OCC)c2)cc(OCC)c1OCC,"inconclusive: 10 µM [inhibitor, partial curve, poor fit]",
COc1cc(/C=C2\CCCc3c2nc2ccccc2c3C(=O)O)cc(OC)c1O,,inactive: 7.81%
CCC1(CC)NC(=O)N(CC(=O)Nc2sc3c(c2C(N)=O)CCC3)C1=O,active: 25.1 µM,
CCOc1ccccc1NC(=O)Nc1ccc2nc(N3CCN(C)CC3)cc(C)c2c1,"inconclusive: 39.8 µM [inhibitor, partial curve, poor fit]",
O=C1CCCc2c1oc1c2CCCC1,,inactive: -12.6%
C/C=C/Cn1c(SCc2ccc(Cl)cc2)nc2c1c(=O)[nH]c(=O)n2C,"inconclusive: 35.5 µM [inhibitor, partial curve, poor fit]",
COc1cc(-c2cc(=O)c3c(O)c(OC)c(OC)c(O)c3o2)ccc1O,active: 7.08 µM,
CC(C)CCOc1ccc(Cn2c(=O)sc3ccccc32)cc1,"inconclusive: 79.4 µM [inhibitor, partial curve, poor fit]",

Structure (SMILES),Potency,"activity change, negative = inhibition"
CCSc1nc(N)c(C#N)c(-c2ccco2)c1C#N,"inconclusive: 22.4 µM [inhibitor, partial curve, poor fit]",
O=C(O)C1Sc2[nH]c(=O)sc2C2c3ccc(O)cc3OC(=O)C12 (centres undefined),,inactive: -57.8%
Cc1nnc(SCC(=O)Nc2ccc(S(=O)(=O)Nc3ccc(Cl)nn3)cc2)s1,active: 20 µM,
N#Cc1ccsc1NC(=O)CN1CCN(c2ccccc2O)CC1,"inconclusive: 28.2 µM [inhibitor, partial curve, poor fit]",
Cc1cc2cc(CNC(=O)c3ccc(C)c([N+](=O)[O-])c3)ccc2[nH]1,,inactive: -9.21%
O=C(O)COn1c(-c2ccccc2)nc2ccc([N+](=O)[O-])cc21,active: 17.8 µM,
COc1ccc(-c2onc(C)c2C)cc1S(=O)(=O)N1CCc2ccccc21,,inactive: -14.7%
Nc1nnc(CC(=O)N/N=C/c2cccc([N+](=O)[O-])c2)s1,,inactive: -20.3%
COc1ccc2oc(C(=O)OCC(=O)N(CCC#N)c3ccccc3)c(C)c2c1,"inconclusive: 25.1 µM [inhibitor, single point]",
Cc1c(CCOC(=O)CC23CC4CC(CC(C4)C2)C3)sc[n+]1CC(=O)c1ccccc1,"inconclusive: 79.4 µM [inhibitor, partial curve, poor fit]",
O=C(Nc1ccc(Cl)c(Cl)c1)Nc1nnc(-c2ccncc2)s1,"inconclusive: 7.08 µM [inhibitor, full curve, poor fit]",
Cc1cc(C(=O)O)ccc1-n1c(C)cc(/C=C(/C#N)C(=O)Nc2ccccc2)c1C,"inconclusive: 17.8 µM [inhibitor, partial curve, poor fit]",
COc1ccc(/C=C/C(=O)O)cc1S(=O)(=O)NCc1ccco1,active: 56.2 µM,
O=C(O)c1ccccc1C(=O)Nc1n[nH]c(=S)s1,,inactive: -11.6%
O=C(N/N=C/c1ccc2c(c1)OCO2)/C(=C/c1ccc2c(c1)OCO2)NC(=O)c1ccccc1,"inconclusive: 15.8 µM [inhibitor, partial curve]",
O=C(Cc1ccc(S(=O)(=O)N2CCOCC2)s1)NCCC(c1ccccc1)c1ccccc1,"inconclusive: 14.1 µM [inhibitor, partial curve]",
CCOC(=O)C1=C(C)NC(C)=C(C(=O)OCC)C1c1cccs1,"inconclusive: 79.4 µM [inhibitor, partial curve, poor fit]",
CN(c1ccccc1)S(=O)(=O)c1nnc(NC(=O)c2ccco2)s1,"inconclusive: 112 µM [inhibitor, partial curve, poor fit]",
CCOC(=O)C1CCN(C(=O)c2ccccc2NS(=O)(=O)c2ccc(F)c(F)c2)CC1,"inconclusive: 79.4 µM [inhibitor, single point]",
Cc1ccc(NC(=O)/C(C#N)=C\c2ccc(-c3ccc(Cl)cc3)o2)c(C)c1,,inactive: -6.15%
COC1=CC(=Cc2c(N)n3nc(CC(=O)N4CCCCC4)sc3nc2=O)C=C(OC)C1=O,active: 56.2 µM,
CC(=O)Nc1ccc(NC(=O)CSc2nnc(-c3cc(C)[nH]n3)n2N)cc1,,inactive: -20.3%
